Data reported in patent publication US20060160798A1, “Viral polymerase inhibitors” (Boehringer Ingelheim (Canada) Ltd., priority 2001, published 2006).

Tested on: Huh7 cells that stably maintain a subgenomic HCV replicon (S22.3 cell-line)
Assay: Cell based HCV RNA replication assay (S22.3 replicon cells, real-time RT-PCR)
Conditions: Hepatitis C virus
[1] = Huh-7, 72 h, S22.3 cells, 72 hours incubation, HCV RNA by RT-PCR

Compound	EC50 (Huh-7, Table 6)	EC50 [1]	EC50 (Huh-7, Table 7)
CC(=O)N1CCC(NC(=O)c2ccc3c(C4CCCC4)c(-c4ccccn4)n(C)c3c2)(C(=O)Nc2ccc(/C=C/C(=O)O)cc2)CC1 [Entry 6001]	< 500 nM	–	–
Cn1c(-c2ccccn2)c(C2CCCCC2)c2ccc(C(=O)NC3(C(=O)Nc4ccc(/C=C/C(=O)O)cc4)CCC3)cc21 [Entry 2090]	–	< 500 nM	–
C/C(=C\c1ccc(NC(=O)C2(NC(=O)c3ccc4c(C5CCCC5)c(-c5cccc(N)n5)n(C)c4c3)CCC2)cc1)C(=O)O [Entry 7026]	–	–	< 500 nM
Cc1cc(NC(=O)C2(NC(=O)c3ccc4c(C5CCCC5)c(-c5ccccn5)n(C)c4c3)CCC2)ccc1/C=C/C(=O)O [Entry 7001]	–	–	< 500 nM
Cn1c(-c2cccc(N)c2)c(C2CCCC2)c2ccc(C(=O)NC3(C(=O)Nc4ccc(-c5ccc(C(=O)O)o5)cc4)CCC3)cc21 [Entry 7050]	–	–	< 500 nM
CN(C)c1ccc(-c2c(C3CCCCC3)c3ccc(C(=O)NC(C)(C)C(=O)Nc4ccc(/C=C/C(=O)O)cc4)cc3n2C)cn1 [Entry 2032]	–	< 500 nM	–
CC(C)(NC(=O)c1ccc2c(C3CCCCC3)c(-c3ccccc3)[nH]c2c1)C(=O)Nc1ccc(/C=C/C(=O)O)cc1 [Entry 2058]	–	< 500 nM	–
CC(=O)N1CCC(NC(=O)c2ccc3c(C4CCCCC4)c(-c4ccoc4)[nH]c3c2)(C(=O)Nc2ccc(/C=C/C(=O)O)cc2)CC1 [Entry 2055]	–	< 500 nM	–
CCN1CCC(NC(=O)c2ccc3c(C4CCCCC4)c(-c4ccoc4)[nH]c3c2)(C(=O)Nc2ccc(/C=C/C(=O)O)cc2)CC1 [Entry 2088]	–	< 500 nM	–
CCNc1nc(-c2c(C3CCCC3)c3ccc(C(=O)NC4(C(=O)Nc5ccc(/C=C/C(=O)O)cc5)CCCC4)cc3n2C)cs1 [Entry 6088]	< 500 nM	–	–
CN1CC[C@@](NC(=O)c2ccc3c(C4CCCC4)c(-c4ccccn4)n(C)c3c2)(C(=O)Nc2ccc(/C=C/C(=O)O)cc2)C1 [Entry 7058]	–	–	< 500 nM
Cn1c(-c2csc(NC(=O)C(C)(C)C)n2)c(C2CCCC2)c2ccc(C(=O)NC3(C(=O)Nc4ccc(/C=C/C(=O)O)cc4)CCC3)cc21 [Entry 6081]	< 500 nM	–	–
Cn1c(-c2cnccn2)c(C2CCCC2)c2ccc(C(=O)NC3(C(=O)Nc4ccc(-c5ccc(C(=O)O)o5)cc4)CCCC3)cc21 [Entry 7037]	–	–	< 500 nM
Cc1c(C(=O)O)sc2ccc(NC(=O)C3(NC(=O)c4ccc5c(C6CCCCC6)c(-c6ccccn6)n(C)c5c4)CCC3)cc12 [Entry 2111]	–	< 500 nM	–
CNC(=O)C(=O)Nc1ccc(NC(=O)C(C)(C)NC(=O)c2ccc3c(C4CCCCC4)c(-c4ccccn4)n(C)c3c2)cc1 [Entry 2076]	–	< 500 nM	–
Cn1c(-c2cnccn2)c(C2CCCC2)c2ccc(C(=O)NC3(C(=O)Nc4ccc(/C=C/C(=O)O)cc4)CCCC3)cc21 [Entry 6063]	< 500 nM	–	–
Cn1c(-c2ccccn2)c(C2CCCCC2)c2ccc(C(=O)NC(C)(C)C(=O)Nc3ccc(NC(=O)C(N)=O)cc3)cc21 [Entry 2077]	–	< 500 nM	–
Cc1ccc(-c2c(C3CCCC3)c3ccc(C(=O)N[C@@]4(C(=O)Nc5ccc(/C=C/C(=O)O)cc5)CCN(C)C4)cc3n2C)nc1 [Entry 6114]	< 500 nM	–	–
Cn1c(-c2nccs2)c(C2CCCC2)c2ccc(C(=O)NC3(C(=O)Nc4ccc(-c5ccc(C(=O)O)o5)cc4)CCC3)cc21 [Entry 7047]	–	–	< 500 nM
CC(=O)N1CCCC(NC(=O)c2ccc3c(C4CCCCC4)c(-c4ccccn4)n(C)c3c2)(C(=O)Nc2ccc(/C=C/C(=O)O)cc2)C1 (stereo not drawn) [Entry 2105]	–	< 500 nM	–

Compound	EC50 (Huh-7, Table 6)	EC50 [1]	EC50 (Huh-7, Table 7)
CC(C)(NC(=O)c1ccc2c(C3CCCCC3)c(-c3ccoc3)[nH]c2c1)C(=O)Nc1ccc(-c2csc(C(=O)O)n2)cc1 [Entry 2061]	–	500 to 5000 nM	–
COCCNc1nc(-c2c(C3CCCC3)c3ccc(C(=O)NC4(C(=O)Nc5ccc(/C=C/C(=O)O)cc5)CCCC4)cc3n2C)cs1 [Entry 6092]	< 500 nM	–	–
Cn1c(-c2ccsc2)c(C2CCCC2)c2ccc(C(=O)NC3(C(=O)Nc4ccc(-c5ccc(C(=O)O)o5)cc4)CCCC3)cc21 [Entry 7052]	–	–	< 500 nM
Cn1c(-c2ccc(C(F)(F)F)cn2)c(C2CCCC2)c2ccc(C(=O)NC3(C(=O)Nc4ccc(/C=C/C(=O)O)cc4)CCCC3)cc21 [Entry 6042]	< 500 nM	–	–
Cc1nc(-c2c(C3CCCC3)c3ccc(C(=O)NC4(C(=O)Nc5ccc(/C=C/C(=O)O)cc5)CCCC4)cc3n2C)cs1 [Entry 6090]	< 500 nM	–	–
Cn1c(C(=O)O)cc2cc(NC(=O)C3(NC(=O)c4ccc5c(C6CCCC6)c(-c6ccccn6)n(C)c5c4)CCC3)ccc21 [Entry 7012]	–	–	< 500 nM
Cc1nc([C@H](Cc2c[nH]c3ccc(O)cc23)NC(=O)c2ccc3c(C4CCCC4)c(-c4ccoc4)sc3c2)cs1 [Entry 1024]	–	500 to 5000 nM	–
Cn1c(-c2ccccc2)c(C2CCCCC2)c2ccc(C(=O)NC3(C(=O)Nc4ccc(/C=C/C(=O)O)cc4)CCCC3)cc21 [Entry 2034]	–	< 500 nM	–
Cn1c(C(=O)O)cc2cc(NC(=O)C3(NC(=O)c4ccc5c(C6CCCC6)c(-c6cccc(N)c6)n(C)c5c4)CCC3)ccc21 [Entry 7015]	–	–	< 500 nM
Cn1c(-c2nccs2)c(C2CCCC2)c2ccc(C(=O)NC3(C(=O)Nc4ccc(/C=C/C(=O)O)cc4)CCCC3)cc21 [Entry 6051]	< 500 nM	–	–
O=C(O)/C=C/c1ccc(NC(=O)C2(NC(=O)c3ccc4c(C5CCCCC5)c(Br)[nH]c4c3)CCCC2)cc1 [Entry 2003]	–	500 to 5000 nM	–
O=C(O)/C=C/c1ccc(NC(=O)C2(NC(=O)c3ccc4c(C5CCCCC5)c(-c5ccoc5)n(Cc5ccncc5)c4c3)CCCC2)cc1 [Entry 2043]	–	< 500 nM	–
Cn1c(C(N)=O)cc2cc(NC(=O)C(C)(C)NC(=O)c3ccc4c(C5CCCCC5)c(-c5ccccn5)n(C)c4c3)ccc21 [Entry 2075]	–	< 500 nM	–
Cn1c(C(=O)O)cc2cc(NC(=O)C3(NC(=O)c4ccc5c(C6CCCC6)c(-c6ccc(N)cc6)n(C)c5c4)CCC3)ccc21 [Entry 7051]	–	–	< 500 nM
Cn1c(-c2nccs2)c(C2CCCC2)c2ccc(C(=O)NC3(C(=O)Nc4ccc(-c5ccc(C(=O)O)o5)cc4)CCCC3)cc21 [Entry 7048]	–	–	< 500 nM
CC(C)N1CCC(NC(=O)c2ccc3c(C4CCCC4)c(-c4ccccn4)n(C)c3c2)(C(=O)Nc2ccc(C=CC(=O)O)cc2)C1 (stereo not drawn) [Entry 7060]	–	–	< 500 nM
COc1ccc(-c2c(C3CCCC3)c3ccc(C(=O)NC4(C(=O)Nc5ccc(/C=C/C(=O)O)cc5)CCC4)cc3n2C)nc1 [Entry 6123]	< 500 nM	–	–
CCC(CC)Nc1nc(-c2c(C3CCCC3)c3ccc(C(=O)NC(C)(C)C(=O)Nc4ccc(/C=C/C(=O)O)cc4)cc3n2C)cs1 [Entry 6031]	< 500 nM	–	–
Cn1c(-c2csc(NC(=O)OC3CCCC3)n2)c(C2CCCC2)c2ccc(C(=O)NC(C)(C)C(=O)Nc3ccc(/C=C/C(=O)O)cc3)cc21 [Entry 6030]	< 500 nM	–	–
Cn1c(-c2ccccn2)c(C2CCCC2)c2ccc(C(=O)NC3(C(=O)Nc4ccc(-c5ccc(C(=O)O)o5)cc4)CCC3)cc21 [Entry 7009]	–	–	< 500 nM

Compound	EC50 (Huh-7, Table 6)	EC50 [1]	EC50 (Huh-7, Table 7)
Cn1c(-c2cccs2)c(C2CCCCC2)c2ccc(C(=O)NC(C)(C)C(=O)Nc3ccc(/C=C/C(=O)O)cc3)cc21 [Entry 2066]	–	< 500 nM	–
CC(=O)N1CCCC(NC(=O)c2ccc3c(C4CCCC4)c(-c4ccccn4)n(C)c3c2)(C(=O)Nc2ccc(/C=C/C(=O)O)cc2)C1 (stereo not drawn) [Entry 6002]	< 500 nM	–	–
COc1cccc(-c2c(C3CCCC3)c3ccc(C(=O)NC4(C(=O)Nc5ccc(/C=C/C(=O)O)cc5)CCCC4)cc3n2C)n1 [Entry 6044]	< 500 nM	–	–
C/C(=C\c1ccc(NC(=O)C2(NC(=O)c3ccc4c(C5CCCC5)c(-c5ccc(C)cn5)n(C)c4c3)CCC2)cc1)C(=O)O [Entry 7030]	–	–	< 500 nM
Cn1c(-c2ccccn2)c(C2CCCC2)c2ccc(C(=O)NC3(C(=O)Nc4ccc(-c5nnn[nH]5)cc4)CCC3)cc21 [Entry 7079]	–	–	< 500 nM
Cn1c(-c2cnccn2)c(C2CCCC2)c2ccc(C(=O)NC3(C(=O)Nc4ccc(/C=C/C(=O)O)cc4)CCC3)cc21 [Entry 6038]	< 500 nM	–	–
C/C(=C\c1ccc(NC(=O)C2(NC(=O)c3ccc4c(C5CCCCC5)c(-c5ccoc5)[nH]c4c3)CCCC2)cc1)C(=O)O [Entry 2005]	–	< 500 nM	–
Cn1c(-c2ccccc2)c(C2CCCCC2)c2ccc(C(=O)NC(C)(C)C(=O)Nc3ccc(/C=C/C(=O)O)cc3)cc21 [Entry 2062]	–	< 500 nM	–
Cn1c(-c2ccccn2)c(C2CCCCC2)c2ccc(C(=O)NC3(C(=O)Nc4ccc(-c5cnc(N)nc5)cc4)CCC3)cc21 [Entry 2113]	–	< 500 nM	–
CCn1c(-c2ccoc2)c(C2CCCCC2)c2ccc(C(=O)NC(C)(C)C(=O)Nc3ccc(/C=C/C(=O)O)cc3)cc21 [Entry 2054]	–	< 500 nM	–
Cn1c(-c2ccccn2)c(C2CCCC2)c2ccc(C(=O)NC3(C(=O)Nc4ccc(-c5ccc(C(=O)O)s5)cc4)CCC3)cc21 [Entry 7004]	–	–	< 500 nM
Cc1ccc(-c2c(C3CCCC3)c3ccc(C(=O)NC4(C(=O)Nc5ccc(-c6ccc(C(=O)O)o6)cc5)CCC4)cc3n2C)cn1 [Entry 7032]	–	–	< 500 nM
CN1CCC(NC(=O)c2ccc3c(C4CCCCC4)c(-c4ccoc4)[nH]c3c2)(C(=O)Nc2ccc3c(c2)cc(C(=O)O)n3C)CC1 [Entry 2049]	–	500 to 5000 nM	–
CC(C)C(=O)Nc1nc(-c2c(C3CCCC3)c3ccc(C(=O)NC4(C(=O)Nc5ccc(/C=C/C(=O)O)cc5)CCCC4)cc3n2C)cs1 [Entry 6094]	< 500 nM	–	–
Cc1ccc(-c2c(C3CCCC3)c3ccc(C(=O)NC4(C(=O)Nc5ccc(-c6ccc(C(=O)O)o6)cc5)CCC4)cc3n2C)nc1 [Entry 7028]	–	–	< 500 nM
CN1CCCC(NC(=O)c2ccc3c(C4CCCCC4)c(-c4ccccn4)n(C)c3c2)(C(=O)Nc2ccc(/C=C/C(=O)O)cc2)C1 (stereo not drawn) [Entry 2114]	–	< 500 nM	–
C/C(=C\c1ccc(NC(=O)C2(NC(=O)c3ccc4c(C5CCCC5)c(-c5ccc(N)cc5)n(C)c4c3)CCC2)cc1)C(=O)O [Entry 7018]	–	–	< 500 nM
Cn1c(-c2ccncc2)c(C2CCCC2)c2ccc(C(=O)NC3(C(=O)Nc4ccc(-c5ccc(C(=O)O)o5)cc4)CCC3)cc21 [Entry 7040]	–	–	< 500 nM
Cn1c(-c2csc(NCCN3CCCCC3)n2)c(C2CCCC2)c2ccc(C(=O)NC3(C(=O)Nc4ccc(/C=C/C(=O)O)cc4)CCCC3)cc21 [Entry 6093]	< 500 nM	–	–
Cn1c(-c2ncccn2)c(C2CCCC2)c2ccc(C(=O)NC3(C(=O)Nc4ccc(/C=C/C(=O)O)cc4)CCC3)cc21 [Entry 6111]	< 500 nM	–	–
